Measurements published in PMC4336329 (PLoS ONE, 2015).
About 14,000 (4.5%) of roughly 310,000 compounds showed an effect of 50% or more. The effect is printed as a negative number. The list shows a part of the results.

Biological target: human ether-à-go-go-related gene (hERG) potassium channel (human, UniProt Q12809)
Assay: primary screen, population patch clamp on CHO cells stably expressing hERG
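Also: peak tail current of the secondary pulse compared with the same well before compound.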

human ether-à-go-go-related gene (hERG) potassium channel, sequence (Q12809 whole entry, looked up): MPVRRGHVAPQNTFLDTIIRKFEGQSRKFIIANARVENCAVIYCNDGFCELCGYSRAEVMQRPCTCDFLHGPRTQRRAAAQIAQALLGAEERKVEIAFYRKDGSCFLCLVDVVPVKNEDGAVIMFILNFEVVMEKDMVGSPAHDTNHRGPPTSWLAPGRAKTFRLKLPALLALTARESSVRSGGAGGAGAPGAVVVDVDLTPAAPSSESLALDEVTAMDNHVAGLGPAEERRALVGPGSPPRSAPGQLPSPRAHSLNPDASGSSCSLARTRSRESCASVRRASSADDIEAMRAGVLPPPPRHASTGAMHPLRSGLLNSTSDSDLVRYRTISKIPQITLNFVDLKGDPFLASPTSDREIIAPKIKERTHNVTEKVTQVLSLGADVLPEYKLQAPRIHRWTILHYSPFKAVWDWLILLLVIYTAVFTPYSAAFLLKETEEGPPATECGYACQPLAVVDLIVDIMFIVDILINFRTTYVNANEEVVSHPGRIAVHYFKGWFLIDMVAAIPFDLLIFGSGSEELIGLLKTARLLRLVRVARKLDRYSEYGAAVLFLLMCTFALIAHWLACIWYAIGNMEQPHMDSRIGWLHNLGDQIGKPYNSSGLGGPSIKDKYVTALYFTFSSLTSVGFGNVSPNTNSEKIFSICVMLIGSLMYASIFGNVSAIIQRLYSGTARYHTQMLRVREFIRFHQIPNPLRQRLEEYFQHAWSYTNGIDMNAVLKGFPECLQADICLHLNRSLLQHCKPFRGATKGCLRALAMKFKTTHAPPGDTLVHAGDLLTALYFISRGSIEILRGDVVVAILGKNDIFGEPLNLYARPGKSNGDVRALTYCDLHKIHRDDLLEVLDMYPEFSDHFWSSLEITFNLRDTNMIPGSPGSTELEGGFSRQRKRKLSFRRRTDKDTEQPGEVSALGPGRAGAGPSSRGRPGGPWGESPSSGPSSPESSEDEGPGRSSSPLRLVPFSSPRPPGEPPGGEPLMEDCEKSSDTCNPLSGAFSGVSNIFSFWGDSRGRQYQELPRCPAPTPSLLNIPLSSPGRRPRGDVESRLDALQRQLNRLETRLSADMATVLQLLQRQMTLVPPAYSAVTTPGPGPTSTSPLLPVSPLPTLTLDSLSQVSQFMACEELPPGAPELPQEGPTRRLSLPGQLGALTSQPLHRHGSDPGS

SMILES	hERG current change (%, negative = inhibition) at 10uM
COCCn1c(=O)c2c(nc3n2CCCN3CCc2ccccc2)n(C)c1=O	-31.2%
O=C1NC(=S)N(c2ccccc2)C(=O)/C1=C/c1ccco1	-10%
CC(C)C(=O)Nc1nnc(S(=O)(=O)N2CCCCCC2)s1	10.4%
Cc1cc(C)n2nc(C(=O)Nc3ccc4c(c3)OCCO4)nc2n1	10.9%
CCOc1cc2[nH]c(=S)n(CCCOC)c(=O)c2cc1OCC	-12.1%
Cn1c(=O)c2c(nc(SCC(=O)NCc3ccc4c(c3)OCO4)n2Cc2ccc(Cl)cc2)n(C)c1=O	-50.6%
Cc1ccnc(N2C3CCC2CC(O)(c2ccccc2)C3)n1 (centres unmarked)	27.4%
O=C(NC(=S)N1CCCCCC1)c1ccccc1	19.8%
COC(=O)c1cc(S(=O)(=O)Nc2cc(OC)cc(OC)c2)c[nH]1	4.11%
Cc1nnc(NC(=O)c2cccc(S(=O)(=O)N3CC(c4ccccc4)CC3=O)c2)s1 (centres unmarked)	-16.1%
O=c1[nH]c(=O)n(CCOc2ccc(Cl)cc2)cc1Br	-4.33%
COc1ccccc1NC(=O)CSc1nncn1-c1cccnc1	-4.19%
COc1ccc(OC)c(NC(=O)CSc2ncnc3c2cnn3-c2ccccc2Cl)c1	-4.1%
CCN(CC(=O)NCc1ccc(Cl)cc1)C(=O)/C=C/c1ccc(Cl)c([N+](=O)[O-])c1	-67.6%
O=C(OCC(=O)N1CCCc2ccccc21)c1cc(S(=O)(=O)N2CCOCC2)ccc1F	-13.3%
CC(C)(C)n1nnnc1C(c1cccnc1)N1CCN(c2ccccc2F)CC1 (centres unmarked)	-3.22%
Cc1cc2oc(=O)cc(CN3CCCc4ccccc43)c2cc1C	17.1%
Cc1ccc(-c2nc(CS(=O)(=O)CC(=O)NCc3ccc4c(c3)OCO4)c(C)o2)cc1	8%
COc1ccc(-n2ccnc(SCC(=O)NC3CCCC3)c2=O)cc1	0.0746%
CC(=O)N1CCOc2ccc(S(=O)(=O)NCCc3ccc(C)cc3)cc21	-2.91%
Cn1cnnc1SCC(C)(C)NS(=O)(=O)c1ccc(Cl)cc1	31.7%
CCC(=O)N1CCc2cc(S(=O)(=O)CCC(=O)NCc3ccc(C)cc3)ccc21	15.6%

SMILES	hERG current change (%, negative = inhibition) at 10uM
Cc1ccc(C(=O)OCc2nc(N)nc(Nc3ccccc3C)n2)cc1	6.18%
N#C/C(=C\c1ccccc1)C(=O)Nc1cc(S(=O)(=O)N2CCOCC2)ccc1N1CCCC1	-7.36%
CC(CCCC(C)(C)O)NCc1cn[nH]c1-c1ccc2c(c1)OCO2 (centres unmarked)	-19.7%
COc1ccc(CSCCc2n[nH]c(=S)n2-c2ccccc2)cc1C	0.99%
COc1ccc(-n2c(SCC(=O)NNC(=O)c3ccc(C)cc3)nnc2-c2ccncc2)cc1	-58.6%
CN1CCN(NC(=O)CSc2ccc(Cl)cc2Cl)CC1	17.6%
O=C(CN1CCN(Cc2ccc(Cl)cc2)C1=O)NCc1cccs1	-57.6%
CN(C)N=Nc1ccc(S(=O)(=O)NC(=O)Cc2ccccc2)cc1	8.66%
O=C(Cc1cccs1)Nc1nnc(C2CC2)s1	16.1%
COCCSc1ccccc1C(=O)Nc1nnc(C)s1	-5.34%
C(=N\N(c1ccccc1)c1ccccc1)/c1ccccn1	7.74%
O=C(CCc1ccccc1)Nc1nn[nH]n1	-5.09%
COc1ccc(C(=O)OCCCN(C)C)cc1OC	-8.38%
CCC(NC(=O)c1oc2ccccc2c1COC)c1ccc(OC)cc1 (centres unmarked)	10.4%
CCc1c(C(=O)OC)nnc2cc(C)nn12	15.5%
NC(=O)CN1C(=O)C(=O)N(Cc2ccc(F)cc2)C1=O	20.8%
COc1cc(/C=N/NC(=O)c2cc(-c3cccc(OC(C)C)c3)nc3ccccc23)ccc1O	-0.055%
CCCOCC1CC(CCc2nc(=S)[nH][nH]2)C(=O)O1 (centres unmarked)	19.8%
O=C(C[n+]1ccn(CCCNP2(=O)C=C(c3ccccc3)OC(c3ccccc3)=C2)c1)c1ccccc1.[Br-]	-22.8%
Cc1ccc(NC(=O)Cc2sc(C)nc2-c2ccc(C)cc2)cc1	-12.3%
COc1ccc(Cn2c(O)cc(=O)[nH]c2=O)cc1	11.8%
Nc1nc(-c2ccccc2)nn1C(=O)Cc1ccccc1	22%
